# The other results are listed elsewhere or left out.
# How the values were obtained:
# Test in all cases: glycan array binding signal (z-score within array); higher = stronger binding
# Conditions in all cases: glycan notation: IUPAC condensed, linker removed
# [1] = target: Gal(b1-3)GlcNAc(b1-2)Man(a1-3)[Gal(b1-3)GlcNAc(b1-2)Man(a1-6)]Man(b1-4)GlcNAc(b1-4)[Fuc(a1-6)]GlcNAc
# Outline: (§1)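 Negative Z-scores can be read as non-binding. The Z-score is calculated within each array and then averaged across arrays of one protein sequence at different concentrations or buffers and across linkers. Arrays, 3228 in all, were curated from the Consortium for Functional Glycomics database and kept only where the protein sequence was available.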
# [2] = target: Gal(b1-3)GlcNAc(b1-2)Man(a1-3)[GlcNAc(b1-4)][Gal(b1-3)GlcNAc(b1-2)Man(a1-6)]Man(b1-4)GlcNAc(b1-4)GlcNAc
# Outline: as §1
# [3] = target: Gal(b1-3)GlcNAc(b1-2)[Gal(b1-3)GlcNAc(b1-6)]Man(a1-6)[Gal(b1-3)GlcNAc(b1-2)Man(a1-3)]Man(b1-4)GlcNAc(b1-4)GlcNAc
# Outline: as §1
# [4] = target: Gal(b1-3)GlcNAc(b1-3)Gal(b1-3)GlcNAc
# Outline: as §1
# [5] = target: Gal(b1-3)GlcNAc(b1-3)Gal(b1-4)Glc
# Outline: as §1
# [6] = target: Gal(b1-3)GlcNAc(b1-3)Gal(b1-4)GlcNAc
# Outline: as §1
# [7] = target: Gal(b1-3)GlcNAc(b1-3)Gal(b1-4)GlcNAc(b1-2)Man(a1-3)[Gal(b1-3)GlcNAc(b1-3)Gal(b1-4)GlcNAc(b1-2)Man(a1-6)]Man(b1-4)GlcNAc(b1-4)GlcNAc
# Outline: as §1
# [8] = target: Gal(b1-3)GlcNAc(b1-3)Gal(b1-4)GlcNAc(b1-2)[Gal(b1-3)GlcNAc(b1-3)Gal(b1-4)GlcNAc(b1-6)]Man(a1-6)[Gal(b1-3)GlcNAc(b1-3)Gal(b1-4)GlcNAc(b1-2)Man(a1-3)]Man(b1-4)GlcNAc(b1-4)[Fuc(a1-6)]GlcNAc
# Outline: as §1
# [9] = target: Gal(b1-3)GlcNAc(b1-3)Gal(b1-4)GlcNAc(b1-3)Gal(b1-4)GlcNAc(b1-2)[Gal(b1-3)GlcNAc(b1-3)Gal(b1-4)GlcNAc(b1-3)Gal(b1-4)GlcNAc(b1-6)]Man(a1-6)[Gal(b1-3)GlcNAc(b1-3)Gal(b1-4)GlcNAc(b1-3)Gal(b1-4)GlcNAc(b1-2)Man(a1-3)]Man(b1-4)GlcNAc(b1-4)[Fuc(a1-6)]GlcNAc
# Outline: as §1
# [10] = target: Gal(b1-3)GlcNAc(b1-3)Gal(b1-4)GlcNAc(b1-6)[Gal(b1-3)GlcNAc(b1-3)]Gal(b1-4)Glc
# Outline: as §1
# [11] = target: Gal(b1-3)GlcNAc(b1-3)Gal(b1-4)[Fuc(a1-3)]GlcNAc
# Outline: as §1
# [12] = target: Gal(b1-3)GlcNAc(b1-3)Gal(b1-4)[Fuc(a1-3)]GlcNAc(b1-6)[Gal(b1-3)GlcNAc(b1-3)]Gal(b1-4)Glc
# Outline: as §1
# [13] = target: Gal(b1-3)GlcNAc(b1-3)GalNAc
# Outline: as §1
# [14] = target: Gal(b1-3)GlcNAc(b1-6)Gal(b1-4)GlcNAc
# Outline: as §1
# [15] = target: Gal(b1-3)GlcNAc(b1-6)GalNAc
# Outline: as §1
# [16] = target: Gal(b1-3)GlcNAc(b1-6)[Gal(b1-3)]GalNAc
# Outline: as §1
# Gal(b1-3)GlcNAc6S = target: Gal(b1-3)GlcNAc6S
# Outline: as §1
# [17] = target: Gal(b1-3)[Fuc(a1-4)]GlcNAc
# Outline: as §1
# [18] = target: Gal(b1-3)[Fuc(a1-4)]GlcNAc(b1-2)Man
# Outline: as §1
# [19] = target: Gal(b1-3)[Fuc(a1-4)]GlcNAc(b1-2)Man(a1-3)[Gal(b1-3)[Fuc(a1-4)]GlcNAc(b1-2)Man(a1-6)]Man(b1-4)GlcNAc(b1-4)[Fuc(a1-6)]GlcNAc
# Outline: as §1
# [20] = target: Gal(b1-3)[Fuc(a1-4)]GlcNAc(b1-3)Gal(b1-3)[Fuc(a1-4)]GlcNAc
# Outline: as §1
# [21] = target: Gal(b1-3)[Fuc(a1-4)]GlcNAc(b1-3)Gal(b1-4)[Fuc(a1-3)]GlcNAc
# Outline: as §1
# [22] = target: Gal(b1-3)[Fuc(a1-4)]GlcNAc(b1-6)GalNAc
# Outline: as §1
# [23] = target: Gal(b1-3)[GlcNAc(b1-6)]GalNAc
# Outline: as §1
# [24] = target: Gal(b1-3)[Neu5Ac(a2-6)]GalNAc
# Outline: as §1
# [25] = target: Gal(b1-3)[Neu5Ac(a2-6)]GlcNAc(b1-4)Gal(b1-4)Glc
# Outline: as §1
# [26] = target: Gal(b1-3)[Neu5Ac(b2-6)]GalNAc
# Outline: as §1
# Gal(b1-4)Gal = target: Gal(b1-4)Gal
# Outline: as §1
# [27] = target: Gal(b1-4)GalNAc(a1-3)[Fuc(a1-2)]Gal(b1-4)GlcNAc
# Outline: as §1
# [28] = target: Gal(b1-4)GalNAc(b1-3)[Fuc(a1-2)]Gal(b1-4)GlcNAc
# Outline: as §1
# Gal(b1-4)Glc = target: Gal(b1-4)Glc
# Outline: as §1
# Gal(b1-4)Glc6S = target: Gal(b1-4)Glc6S
# Outline: as §1
# Gal(b1-4)GlcNAc = target: Gal(b1-4)GlcNAc
# Outline: as §1
# [29] = target: Gal(b1-4)GlcNAc(a1-6)Gal(b1-4)GlcNAc
# Outline: as §1
# Gal(b1-4)GlcNAc(b1-2)Man = target: Gal(b1-4)GlcNAc(b1-2)Man
# Outline: as §1
# [30] = target: Gal(b1-4)GlcNAc(b1-2)Man(a1-3)Man(b1-4)GlcNAc(b1-4)GlcNAc
# Outline: as §1
# [31] = target: Gal(b1-4)GlcNAc(b1-2)Man(a1-3)[Gal(b1-4)GlcNAc(b1-2)Man(a1-6)]Man(b1-4)GlcNAc(b1-4)GlcNAc
# Outline: as §1
binder,measurement,setting,value
Nc3LysM (protein) QFTVPPDTTAEPNTIKTCTWWHVAGSGDSCTSIASTYGITSEQFARWDMETTDSPKNPSVATACKLTVGNSYCIENNFGQDDPPTPSISSSTLIGTATTSTTASTTTGNGISTPTPIQEGMETATTTTSSGNGITTPTPTQAGMETVGNCDRFHLVKSGDQCGTIASTYGITLANFYSWNPAVGTSCQSLWLDTYVCVRTIGFVPPKTTTTTTKKPTSTTSAGGVATPTPTQPGMETVSGCKKFHKGRGNVSTVASGDQCGTIATRYGISLANFYSWNPAVGSSCQTLWLDYYVCVGR,glycan array binding signal (z-score),[1],-0.069
same,glycan array binding signal (z-score),[2],0.083
same,glycan array binding signal (z-score),[3],-0.2
same,glycan array binding signal (z-score),[4],-0.167
same,glycan array binding signal (z-score),[5],-0.145
same,glycan array binding signal (z-score),[6],-0.043
same,glycan array binding signal (z-score),[7],-0.15
same,glycan array binding signal (z-score),[8],0.304
same,glycan array binding signal (z-score),[9],0.175
same,glycan array binding signal (z-score),[10],-0.063
same,glycan array binding signal (z-score),[11],-0.169
same,glycan array binding signal (z-score),[12],-0.082
same,glycan array binding signal (z-score),[13],-0.042
same,glycan array binding signal (z-score),[14],-0.053
same,glycan array binding signal (z-score),[15],-0.07
same,glycan array binding signal (z-score),[16],-0.086
same,glycan array binding signal (z-score),Gal(b1-3)GlcNAc6S,0.277
same,glycan array binding signal (z-score),[17],0.22
same,glycan array binding signal (z-score),[18],-0.135
same,glycan array binding signal (z-score),[19],0.044
same,glycan array binding signal (z-score),[20],-0.176
same,glycan array binding signal (z-score),[21],0.21
same,glycan array binding signal (z-score),[22],-0.012
same,glycan array binding signal (z-score),[23],-0.163
same,glycan array binding signal (z-score),[24],0.008
same,glycan array binding signal (z-score),[25],0.035
same,glycan array binding signal (z-score),[26],0.011
same,glycan array binding signal (z-score),Gal(b1-4)Gal,-0.055
same,glycan array binding signal (z-score),[27],0.03
same,glycan array binding signal (z-score),[28],-0.236
same,glycan array binding signal (z-score),Gal(b1-4)Glc,-0.013
same,glycan array binding signal (z-score),Gal(b1-4)Glc6S,-0.198
same,glycan array binding signal (z-score),Gal(b1-4)GlcNAc,0.015
same,glycan array binding signal (z-score),[29],-0.115
same,glycan array binding signal (z-score),Gal(b1-4)GlcNAc(b1-2)Man,0.227
same,glycan array binding signal (z-score),[30],-0.159
same,glycan array binding signal (z-score),[31],-0.007

# Reference: the supplement of paper PMC8728848
